# Some of the results follow.
# B1: FliC (Pseudomonas aeruginosa), P72151 (protein)
# chain: MALTVNTNIASLNTQRNLNASSNDLNTSLQRLTTGYRINSAKDDAAGLQISNRLSNQISGLNVATRNANDGISLAQTAEGALQQSTNILQRIRDLALQSANGSNSDADRAALQKEVAAQQAELTRISDTTTFGGRKLLDGSFGTTSFQVGSNAYETIDISLQNASASAIGSYQVGSNGAGTVASVAGTATASGIASGTVNLVGGGQVKNIAIAAGDSAKAIAEKMDGAIPNLSARARTVFTADVSGVTGGSLNFDVTVGSNTVSLAGVTSTQDLADQLNSNSSKLGITASINDKGVLTITSATGENVKFGAQTGTATAGQVAVKVQGSDGKFEAAAKNVVAAGTAATTTIVTGYVQLNSPTAYSVSGTGTQASQVFGNASAAQKSSVASVDISTADGAQNAIAVVDNALAAIDAQRADLGAVQNRFKNTIDNLTNISENATNARSRIKDTDFAAETAALSKNQVLQQAGTAILAQANQLPQAVLSLLR
# Key:
# Test in all cases: glycan array binding signal (z-score within array); higher = stronger binding
# Conditions in all cases: glycan notation: IUPAC condensed, linker removed
# [1] = molecular target: Man(a1-3)[Man(a1-6)]Man(a1-6)[Man(a1-3)]Man
# How it was run: (§1)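 The binding signal is a Z-score computed within each array. Data were drawn from 3228 arrays in the Consortium for Functional Glycomics database, restricted to those with a known protein sequence. Scores were averaged over arrays of the same protein sequence at different concentrations or buffers, and over linkers, and negative values can be taken as non-binding.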
# [2] = molecular target: Man(a1-3)[Man(a1-6)]Man(a1-6)[Man(a1-3)]Man(b1-4)GlcNAc(b1-4)GlcNAc
# How it was run: as §1
# [3] = molecular target: Man(a1-3)[Man(a1-6)]Man(b1-4)GlcNAc(b1-4)GlcNAc
# How it was run: as §1
# [4] = molecular target: Man(a1-3)[Man(a1-6)]Man(b1-4)GlcNAc(b1-4)[Fuc(a1-6)]GlcNAc
# How it was run: as §1
# Man(a1-6)Man = molecular target: Man(a1-6)Man
# How it was run: as §1
# Man(b1-4)GlcNAc = molecular target: Man(b1-4)GlcNAc
# How it was run: as §1
# MurNAc(b1-4)GlcNAc = molecular target: MurNAc(b1-4)GlcNAc
# How it was run: as §1
# Neu5Ac(a2-3)Gal = molecular target: Neu5Ac(a2-3)Gal
# How it was run: as §1
# [5] = molecular target: Neu5Ac(a2-3)Gal(b1-3)GalNAc
# How it was run: as §1
# [6] = molecular target: Neu5Ac(a2-3)Gal(b1-3)GalNAc(b1-3)Gal(a1-4)Gal(b1-4)Glc
# How it was run: as §1
# [7] = molecular target: Neu5Ac(a2-3)Gal(b1-3)GalNAc(b1-4)[Neu5Ac(a2-3)]Gal(b1-4)Glc
# How it was run: as §1
# [8] = molecular target: Neu5Ac(a2-3)Gal(b1-3)GalNAc(b1-4)[Neu5Ac(a2-8)Neu5Ac(a2-3)]Gal(b1-4)Glc
# How it was run: as §1
# [9] = molecular target: Neu5Ac(a2-3)Gal(b1-3)GalNAc6S
# How it was run: as §1
# [10] = molecular target: Neu5Ac(a2-3)Gal(b1-3)GlcNAc
# How it was run: as §1
# [11] = molecular target: Neu5Ac(a2-3)Gal(b1-3)GlcNAc(b1-2)Man
# How it was run: as §1
# [12] = molecular target: Neu5Ac(a2-3)Gal(b1-3)GlcNAc(b1-2)Man(a1-3)[GlcNAc(b1-4)][Neu5Ac(a2-3)Gal(b1-3)GlcNAc(b1-2)Man(a1-6)]Man(b1-4)GlcNAc(b1-4)GlcNAc
# How it was run: as §1
# [13] = molecular target: Neu5Ac(a2-3)Gal(b1-3)GlcNAc(b1-2)Man(a1-3)[Neu5Ac(a2-3)Gal(b1-3)GlcNAc(b1-2)Man(a1-6)]Man(b1-4)GlcNAc(b1-4)GlcNAc
# How it was run: as §1
# [14] = molecular target: Neu5Ac(a2-3)Gal(b1-3)GlcNAc(b1-3)Gal(b1-3)GlcNAc
# How it was run: as §1
# [15] = molecular target: Neu5Ac(a2-3)Gal(b1-3)GlcNAc(b1-3)Gal(b1-4)GlcNAc
# How it was run: as §1
# [16] = molecular target: Neu5Ac(a2-3)Gal(b1-3)GlcNAc(b1-3)GalNAc
# How it was run: as §1
# [17] = molecular target: Neu5Ac(a2-3)Gal(b1-3)GlcNAc(b1-4)Gal(b1-4)Glc
# How it was run: as §1
# [18] = molecular target: Neu5Ac(a2-3)Gal(b1-3)GlcNAc(b1-6)GalNAc
# How it was run: as §1
# [19] = molecular target: Neu5Ac(a2-3)Gal(b1-3)GlcNAc6S
# How it was run: as §1
# [20] = molecular target: Neu5Ac(a2-3)Gal(b1-3)[Fuc(a1-4)]GlcNAc
# How it was run: as §1
# [21] = molecular target: Neu5Ac(a2-3)Gal(b1-3)[Fuc(a1-4)]GlcNAc(b1-3)Gal(b1-3)[Fuc(a1-4)]GlcNAc
# How it was run: as §1
# [22] = molecular target: Neu5Ac(a2-3)Gal(b1-3)[Fuc(a1-4)]GlcNAc(b1-3)Gal(b1-4)[Fuc(a1-3)]GlcNAc
# How it was run: as §1
# [23] = molecular target: Neu5Ac(a2-3)Gal(b1-3)[GlcNAc(b1-6)]GalNAc
# How it was run: as §1
# [24] = molecular target: Neu5Ac(a2-3)Gal(b1-3)[Neu5Ac(a2-6)]GalNAc
# How it was run: as §1
# [25] = molecular target: Neu5Ac(a2-3)Gal(b1-3)[Neu5Ac(a2-6)]GlcNAc(b1-3)[Fuc(a1-3)[Gal(b1-4)]GlcNAc(b1-6)]Gal(b1-4)Glc
# How it was run: as §1
# [26] = molecular target: Neu5Ac(a2-3)Gal(b1-3)]Neu5Ac(a2-3)Gal(b1-4)]GlcNAc
# How it was run: as §1
# Neu5Ac(a2-3)Gal(b1-4)Glc = molecular target: Neu5Ac(a2-3)Gal(b1-4)Glc
# How it was run: as §1
# [27] = molecular target: Neu5Ac(a2-3)Gal(b1-4)GlcNAc
# How it was run: as §1
# [28] = molecular target: Neu5Ac(a2-3)Gal(b1-4)GlcNAc(b1-2)Man
# How it was run: as §1
# [29] = molecular target: Neu5Ac(a2-3)Gal(b1-4)GlcNAc(b1-2)Man(a1-3)[GlcNAc(b1-4)][Neu5Ac(a2-3)Gal(b1-4)GlcNAc(b1-2)Man(a1-6)]Man(b1-4)GlcNAc(b1-4)GlcNAc
# How it was run: as §1
# [30] = molecular target: Neu5Ac(a2-3)Gal(b1-4)GlcNAc(b1-2)Man(a1-3)[Neu5Ac(a2-3)Gal(b1-4)GlcNAc(b1-2)Man(a1-6)]Man(b1-4)GlcNAc(b1-4)GlcNAc
# How it was run: as §1
# [31] = molecular target: Neu5Ac(a2-3)Gal(b1-4)GlcNAc(b1-2)Man(a1-3)[Neu5Ac(a2-3)Gal(b1-4)GlcNAc(b1-2)Man(a1-6)]Man(b1-4)GlcNAc(b1-4)[Fuc(a1-6)]GlcNAc
# How it was run: as §1
# [32] = molecular target: Neu5Ac(a2-3)Gal(b1-4)GlcNAc(b1-2)Man(a1-3)[Neu5Ac(a2-6)Gal(b1-4)GlcNAc(b1-2)Man(a1-6)]Man(b1-4)GlcNAc(b1-4)GlcNAc
# How it was run: as §1
# [33] = molecular target: Neu5Ac(a2-3)Gal(b1-4)GlcNAc(b1-2)[Neu5Ac(a2-3)Gal(b1-4)GlcNAc(b1-4)]Man(a1-3)[GlcNAc(b1-4)][Neu5Ac(a2-3)Gal(b1-4)GlcNAc(b1-2)[Neu5Ac(a2-3)Gal(b1-4)GlcNAc(b1-6)]Man(a1-6)]Man(b1-4)GlcNAc(b1-4)GlcNAc
# How it was run: as §1
binder,measurement,setting,value
B1,glycan array binding signal (z-score),[1],-0.152
same,glycan array binding signal (z-score),[2],-0.225
same,glycan array binding signal (z-score),[3],-0.137
same,glycan array binding signal (z-score),[4],-0.001
same,glycan array binding signal (z-score),Man(a1-6)Man,-0.226
same,glycan array binding signal (z-score),Man(b1-4)GlcNAc,-0.177
same,glycan array binding signal (z-score),MurNAc(b1-4)GlcNAc,-0.133
same,glycan array binding signal (z-score),Neu5Ac(a2-3)Gal,-0.141
same,glycan array binding signal (z-score),[5],-0.069
same,glycan array binding signal (z-score),[6],-0.128
same,glycan array binding signal (z-score),[7],-0.231
same,glycan array binding signal (z-score),[8],-0.183
same,glycan array binding signal (z-score),[9],1.19
same,glycan array binding signal (z-score),[10],-0.187
same,glycan array binding signal (z-score),[11],-0.176
same,glycan array binding signal (z-score),[12],0.037
same,glycan array binding signal (z-score),[13],0.057
same,glycan array binding signal (z-score),[14],0.56
same,glycan array binding signal (z-score),[15],-0.18
same,glycan array binding signal (z-score),[16],-0.174
same,glycan array binding signal (z-score),[17],-0.154
same,glycan array binding signal (z-score),[18],-0.161
same,glycan array binding signal (z-score),[19],-0.217
same,glycan array binding signal (z-score),[20],-0.192
same,glycan array binding signal (z-score),[21],-0.186
same,glycan array binding signal (z-score),[22],-0.173
same,glycan array binding signal (z-score),[23],-0.169
same,glycan array binding signal (z-score),[24],-0.034
same,glycan array binding signal (z-score),[25],-0.133
same,glycan array binding signal (z-score),[26],-0.125
same,glycan array binding signal (z-score),Neu5Ac(a2-3)Gal(b1-4)Glc,-0.108
same,glycan array binding signal (z-score),[27],-0.171
same,glycan array binding signal (z-score),[28],-0.083
same,glycan array binding signal (z-score),[29],-0.188
same,glycan array binding signal (z-score),[30],-0.103
same,glycan array binding signal (z-score),[31],20.9
same,glycan array binding signal (z-score),[32],-0.156
same,glycan array binding signal (z-score),[33],8.36

# Source: the supplement of paper PMC8728848
